Screen size: about 350,000 compounds; about 9,900 (2.8%) were called active. Inconclusive means that the source gave no clear call. Such entries were picked first, then a sample of the others. Calls come from the whole dose curve; as a rule, active = well fitted activation curve with a large enough effect; inconclusive = small, poorly fitted or top-dose-only effect; inactive = no such curve, though single readings can be large or run the other way. Potencies of inconclusive entries are left out as doubtful fits.
Assay: A quantitative high throughput screen for small molecules that induce DNA re-replication in MCF 10a normal breast cells. Note: nearly all actives have a fitted effect of over 50% in size.
Details: MCF 10A DNA re-replication, Hoechst nuclear intensity, 48 h; series mostly up to 46.1 µM
Potency is the fitted concentration of half-maximal effect; tags give direction and shape of the fitted curve.

SMILES	Potency
CCCCc1nc2sc3c(SCCN(C)C)ncnc3c2c2c1CCC2	inconclusive [activator, single point]
COc1ccc(-c2cc(C#N)nc(Cl)n2)cc1	inconclusive [activator, single point]
CCOC(=O)c1c2c3c(cccc3[nH]c1=O)C(=O)c1ccccc1-2	inactive
O=C(OCn1nnc2ccccc2c1=O)c1cccnc1Cl	inactive
O=C1CSC(=Nc2ccc(Cl)cc2)N1	inactive
O=c1oc2cc(O)c(Cl)cc2c2ccccc12	inconclusive [activator, partial curve, poor fit]
O=C1Nc2ccccc2O/C1=C\c1c(F)cccc1Cl	inconclusive [activator, single point]
C[N+]12CCCC[C@@H]1CCC(=C(c1cccs1)c1cccs1)C2 (some centres not stated)	inactive
COc1ccc(C(C)=O)cc1COC(=O)c1ccc(C)c(S(=O)(=O)N2CCOCC2)c1	inconclusive [activator, single point]
COC(=O)c1[nH]c2cc(OC)ccc2c1NC(=O)CCN1CCN(c2cccc(C)c2C)CC1	inconclusive [activator, single point]
COc1ccc(S(=O)(=O)/N=C2/C=CC(=O)C(C)=C2C)cc1	inconclusive [activator, single point]
COc1ccc(NC(=O)CCCC(=O)c2ccccc2)c(OC)c1	inconclusive [activator, single point]
COc1ccc(C(CNC(=O)c2ccc(Cl)c(S(=O)(=O)N3CCCC3)c2)N2CCCC2)cc1 (configuration not stated)	inconclusive [activator, single point]
Nc1c(C(=O)Nc2ccc(F)cc2)sc2nc(-c3ccco3)ccc12	inconclusive [activator, single point]
CCCCCN(C(=O)CCC(=O)OCc1ccc(Cl)cc1Cl)c1c(N)n(CCCC)c(=O)[nH]c1=O	inactive
COc1ccc(/C=N/N2CCN(C3c4ccccc4-c4ccccc43)CC2)cc1O	inconclusive [activator, single point]
O=C(CCc1ccccc1)NC(=S)Nc1cccc(Br)c1	active: 16.4 µM
Cc1ccc(S(=O)(=O)N2CCCC2CNC(=O)C(=O)Nc2ccc(F)cc2F)cc1 (configuration not stated)	inconclusive [activator, single point]
O=C(O)CC(c1ccc(C(F)(F)F)cc1)N1Cc2ccccc2C1=O (configuration not stated)	inactive
O=C(CNc1ccc2ccccc2c1)N/N=C/c1cc2ccccc2nc1Cl	active: 18.4 µM
Cc1ccc2cc(CN(CC3CCCO3)C(=S)Nc3ccccc3)c(=O)[nH]c2c1 (configuration not stated)	inconclusive [activator, single point]
CCN(CC)S(=O)(=O)c1cc(NC(=O)CO/N=C(\N)c2ccccc2Cl)ccc1C	inactive
CN(Cc1cc(Br)cc(Br)c1N)C1CCCCC1	active: 26.6 µM
N#CC1=C(N)OC2=C(CC/C2=C\c2ccccc2)C1c1ccccc1 (configuration not stated)	active: 5.8 µM

SMILES	Potency
CCCC(c1nnnn1Cc1cccs1)N1CCN(c2ccc(OC)cc2)CC1 (configuration not stated)	inconclusive [activator, single point]
Cc1nc(-c2ccc(Cl)cc2)sc1C1(C)CC(c2ccncc2)=NO1 (configuration not stated)	inconclusive [activator, single point]
CCCCCCCCCCS(=O)(=O)N/N=C/c1ccc([N+](=O)[O-])cc1	inconclusive [activator, single point]
CCOC(=O)c1ccc(NC(=O)c2ccco2)cc1	inactive
Cc1ccc(CNc2nc(-c3cccs3)nc3ccccc23)cc1	inconclusive [activator, single point]
Cc1ccc(C(=O)CSc2nnc(-c3snnc3C)n2C2CC2)cc1	inconclusive [activator, full curve, poor fit]
C=CCn1c(SCC(=O)Nc2cc(C)on2)nc2c([nH]c3ccccc32)c1=O	inconclusive [activator, partial curve, poor fit]
O=S(=O)(c1ccc(Cl)cc1)c1cnc2ccccc2n1	inconclusive [activator, single point]
C[C@@H]1CC=C[C@H]2[C@H]1C(=O)N(Cc1ccccc1)[C@H]2c1ccc(-c2ccoc2)cc1F	active: 18.4 µM
Oc1c(Br)cc(Br)cc1CNc1cccc2cccnc12	inconclusive [activator, partial curve, poor fit]
Cc1ccccc1CN(C)CC(=O)Nc1ccccc1Oc1ccccc1	inconclusive [activator, single point]
O=c1[nH]c(=O)c2nc3c4ccccc4c4ccccc4c3nc2[nH]1	active: 2.59 µM
CC(C)(C)c1cc(C(=O)CCN2CCOCC2)cc(C(C)(C)C)c1O	inconclusive [activator, single point]
CCOC(=O)C1CCCN(C(=O)c2cccc(S(=O)(=O)N(Cc3ccccc3)c3ccccc3OC)c2)C1 (configuration not stated)	inconclusive [activator, partial curve, poor fit]
Nc1c(NC2CCCCC2)c2ccccc2oc1=O	inactive
C/C(=N/NC(=O)c1ccc(Cn2cccn2)o1)c1cccc(NC(=O)c2ccncc2)c1	inactive
CCOc1ccc(-c2nc3n(c(=O)c2C#N)CCS3)cc1	inactive
Cc1cc(C)n(-c2cccc(F)n2)n1	inactive
CC1CCC2(CC1)NC(=O)N(CC(=O)NC1(C#N)CCCCC1)C2=O (configuration not stated)	inactive
CCN(CC)C(=O)CSc1nc2sc3c(c2c(=O)n1CCCOC)CCC3	inconclusive [activator, partial curve, poor fit]
C=CCN1C=C/C(=C\C=C(C#N)C#N)c2ccccc21	inactive
Cc1cccc(N2CCN(C(=O)NC(C)c3ccc(F)c(F)c3)CC2)c1C (configuration not stated)	inconclusive [activator, partial curve, poor fit]
COc1cc(OC)cc(-c2oc(=O)c3cc(OC)c(OC)cc3c2/C=C/c2ccc(F)cc2)c1	inactive
